MIC of clinical C. albicans isolates, CLSI broth microdilution (ranges and time not stated); higher = less susceptible. Call: susceptible or wild type [S] / resistant or non-wild type [R] by CLSI breakpoints or epidemiological cut-offs; intermediate and dose-dependent carry no call here (the paper groups them with resistant). '<=' and '>=' mark each drug's lowest and highest value, inferred; the source prints them plain. Isolates are numbered anew.
Legend:
Test in all cases: CLSI broth microdilution.
[1] = compound: CCCCCOc1ccc(-c2cc(-c3ccc(C(=O)N[C@H]4C[C@@H](O)[C@@H](O)NC(=O)[C@@H]5[C@@H](O)[C@@H](C)CN5C(=O)[C@H]([C@H](O)CC(N)=O)NC(=O)[C@H]([C@H](O)[C@@H](O)c5ccc(O)c(OS(=O)(=O)O)c5)NC(=O)[C@@H]5C[C@@H](O)CN5C(=O)[C@H]([C@@H](C)O)NC4=O)cc3)no2)cc1 [micafungin]
[2] = compound: Nc1[nH]c(=O)ncc1F [flucytosine]
[3] = compound: C[C@@H](c1ncncc1F)[C@](O)(Cn1cncn1)c1ccc(F)cc1F [voriconazole]
[4] = compound: CCC(C)n1ncn(-c2ccc(N3CCN(c4ccc(OCC5COC(Cn6cncn6)(c6ccc(Cl)cc6Cl)O5)cc4)CC3)cc2)c1=O [itraconazole]
[5] = compound: OC(Cn1cncn1)(Cn1cncn1)c1ccc(F)cc1F [fluconazole]
[6] = compound: CC[C@H](C)C[C@H](C)CCCCCCCCC(=O)N[C@H]1C[C@@H](O)[C@@H](NCCN)NC(=O)[C@@H]2[C@@H](O)CCN2C(=O)[C@H]([C@H](O)CCN)NC(=O)[C@H]([C@H](O)[C@@H](O)c2ccc(O)cc2)NC(=O)[C@@H]2C[C@@H](O)CN2C(=O)[C@H]([C@@H](C)O)NC1=O [caspofungin]
[7] = compound: CCCCCOc1ccc(-c2ccc(-c3ccc(C(=O)N[C@H]4C[C@@H](O)[C@@H](O)NC(=O)[C@@H]5[C@@H](O)[C@@H](C)CN5C(=O)[C@H]([C@@H](C)O)NC(=O)[C@H]([C@H](O)[C@@H](O)c5ccc(O)cc5)NC(=O)[C@@H]5C[C@@H](O)CN5C(=O)[C@H]([C@@H](C)O)NC4=O)cc3)cc2)cc1 [anidulafungin]
[8] = compound: C[C@@H]1[C@H](O)[C@@H](C)/C=C/C=C/C=C/C=C/C=C/C=C/C=C/[C@H](O[C@@H]2O[C@H](C)[C@@H](O)[C@H](N)[C@@H]2O)C[C@@H]2O[C@](O)(C[C@@H](O)C[C@@H](O)[C@H](O)CC[C@@H](O)C[C@@H](O)CC(=O)O[C@H]1C)C[C@H](O)[C@H]2C(=O)O [amphotericin B]
[9] = compound: CC[C@@H]([C@H](C)O)n1ncn(-c2ccc(N3CCN(c4ccc(OC[C@@H]5CO[C@@](Cn6cncn6)(c6ccc(F)cc6F)C5)cc4)CC3)cc2)c1=O [posaconazole]

| Test System | MIC [1] | MIC [2] | MIC [3] | MIC [4] | MIC [5] | MIC [6] | MIC [7] | MIC [8] | MIC [9] |
| --- | --- | --- | --- | --- | --- | --- | --- | --- | --- |
| Candida albicans isolate 238 (Erg11p: G129A, Fur1p: WT, Tac1p: R869Q,L695F,I558V,A377V,F189S,M170V,L131I) | 0.015 mg/L [S] | ≤ 0.06 mg/L [S] | ≤ 0.008 mg/L [S] | ≤ 0.015 mg/L [S] | 0.5 mg/L [S] | 0.015 mg/L [S] | ≤ 0.015 mg/L [S] | 0.25 mg/L [S] | ≤ 0.008 mg/L [S] |
| Candida albicans isolate 165 (Erg11p: V488I,H373Y,E266D, Fur1p: WT, Tac1p: N896S,I895T) | 0.015 mg/L [S] | ≤ 0.06 mg/L [S] | ≤ 0.008 mg/L [S] | ≤ 0.015 mg/L [S] | ≤ 0.12 mg/L [S] | 0.03 mg/L [S] | ≤ 0.015 mg/L [S] | 0.25 mg/L [S] | ≤ 0.008 mg/L [S] |
| Candida albicans isolate 326 (Erg11p: K499N,E266D, Fur1p: WT, Tac1p: R800K,L695F) | 0.015 mg/L [S] | ≤ 0.06 mg/L [S] | ≤ 0.008 mg/L [S] | 0.03 mg/L [S] | 0.25 mg/L [S] | 0.06 mg/L [S] | 0.12 mg/L [S] | 0.5 mg/L [S] | 0.015 mg/L [S] |
| Candida albicans isolate 140 (Erg11p: E266D, Fur1p: WT, Tac1p: I558V,A377V,F189S,N174D,M170I,M170V,K87N) | ≤ 0.008 mg/L [S] | ≤ 0.06 mg/L [S] | 0.015 mg/L [S] | 0.06 mg/L [S] | 0.5 mg/L [S] | 0.015 mg/L [S] | ≤ 0.015 mg/L [S] | 1 mg/L [S] | 0.03 mg/L [S] |
| Candida albicans isolate 254 (Erg11p: WT, Fur1p: WT, Tac1p: WT) | 0.015 mg/L [S] | ≤ 0.06 mg/L [S] | ≤ 0.008 mg/L [S] | 0.03 mg/L [S] | 0.5 mg/L [S] | 0.015 mg/L [S] | ≤ 0.015 mg/L [S] | 0.5 mg/L [S] | 0.015 mg/L [S] |
| Candida albicans isolate 184 (Erg11p: V437I,E266D, Fur1p: WT, Tac1p: S937L,I895T,L695F,I558V,F189S,L131I) | ≤ 0.008 mg/L [S] | 0.12 mg/L [S] | ≤ 0.008 mg/L [S] | 0.03 mg/L [S] | 0.5 mg/L [S] | 0.03 mg/L [S] | ≤ 0.015 mg/L [S] | 1 mg/L [S] | 0.03 mg/L [S] |
| Candida albicans isolate 176 (Erg11p: WT, Fur1p: WT, Tac1p: WT) | ≤ 0.008 mg/L [S] | ≤ 0.06 mg/L [S] | ≤ 0.008 mg/L [S] | ≤ 0.015 mg/L [S] | 0.5 mg/L [S] | 0.015 mg/L [S] | ≤ 0.015 mg/L [S] | 0.25 mg/L [S] | 0.015 mg/L [S] |
| Candida albicans isolate 348 (Erg11p: WT, Fur1p: WT, Tac1p: N896S) | ≤ 0.008 mg/L [S] | ≤ 0.06 mg/L [S] | ≤ 0.008 mg/L [S] | 0.03 mg/L [S] | 0.25 mg/L [S] | 0.03 mg/L [S] | ≤ 0.015 mg/L [S] | 0.5 mg/L [S] | 0.015 mg/L [S] |
| Candida albicans isolate 328 (Erg11p: WT, Fur1p: WT, Tac1p: N896S,C858Y,N823K,I558V,F189S) | 0.015 mg/L [S] | ≤ 0.06 mg/L [S] | ≤ 0.008 mg/L [S] | 0.06 mg/L [S] | 0.5 mg/L [S] | 0.03 mg/L [S] | 0.06 mg/L [S] | 0.5 mg/L [S] | 0.03 mg/L [S] |
| Candida albicans isolate 286 (Erg11p: Y257H,A114S, Fur1p: R101C, Tac1p: A736V) | ≤ 0.008 mg/L [S] | 0.25 mg/L [S] | 0.5 µg/mL | 0.25 mg/L [R] | 8 mg/L [R] | 0.015 mg/L [S] | ≤ 0.015 mg/L [S] | 1 mg/L [S] | 0.25 mg/L [R] |
| Candida albicans isolate 29 (Erg11p: WT, Fur1p: WT, Tac1p: A377V,F189S,N174D,M170I,K87N) | ≤ 0.008 mg/L [S] | ≤ 0.06 mg/L [S] | ≤ 0.008 mg/L [S] | 0.06 mg/L [S] | ≤ 0.12 mg/L [S] | 0.06 mg/L [S] | 0.06 mg/L [S] | 0.5 mg/L [S] | 0.03 mg/L [S] |
| Candida albicans isolate 123 (Erg11p: WT, Fur1p: WT, Tac1p: I558V,A377V,F189S,N174D,M170I,K87N) | 0.015 mg/L [S] | ≤ 0.06 mg/L [S] | ≤ 0.008 mg/L [S] | ≤ 0.015 mg/L [S] | 0.25 mg/L [S] | 0.03 mg/L [S] | 0.06 mg/L [S] | 0.25 mg/L [S] | 0.015 mg/L [S] |
| Candida albicans isolate 75 (Erg11p: E266D,G129A, Fur1p: WT, Tac1p: R869Q,L695F,I558V,A377V,F189S,M170V,L131I) | 0.015 mg/L [S] | ≤ 0.06 mg/L [S] | ≤ 0.008 mg/L [S] | 0.03 mg/L [S] | 0.5 mg/L [S] | 0.03 mg/L [S] | ≤ 0.015 mg/L [S] | 0.25 mg/L [S] | 0.03 mg/L [S] |
| Candida albicans isolate 243 (Erg11p: V488I,V437I,E266D,K143E, Fur1p: WT, Tac1p: I895T,T782A,I558V,A377V,F189S,N174D,M170I,M170V,K87N) | ≤ 0.008 mg/L [S] | ≤ 0.06 mg/L [S] | 0.015 mg/L [S] | 0.03 mg/L [S] | 2 mg/L [S] | 0.015 mg/L [S] | ≤ 0.015 mg/L [S] | 0.25 mg/L [S] | 0.015 mg/L [S] |
| Candida albicans isolate 219 (Erg11p: V437I, Fur1p: WT, Tac1p: N896S,A377V,F189S,N174D,M170I,K87N) | 0.015 mg/L [S] | ≤ 0.06 mg/L [S] | ≤ 0.008 mg/L [S] | 0.03 mg/L [S] | 0.5 mg/L [S] | 0.03 mg/L [S] | 0.06 mg/L [S] | 0.5 mg/L [S] | 0.015 mg/L [S] |
| Candida albicans isolate 158 (Erg11p: E266D, Fur1p: WT, Tac1p: C908Y,A377V,N174D,M170I,I109N,K87N) | 0.03 mg/L [S] | ≤ 0.06 mg/L [S] | 4 mg/L [R] | 0.5 mg/L [R] | 128 mg/L [R] | 0.06 mg/L [S] | 0.12 mg/L [S] | 0.5 mg/L [S] | 0.25 mg/L [R] |
